Out of some 48,000 compounds screened, about 550 (1.1%) were called active. About 4% were inconclusive and are not listed. Cut-off read from the data, not from the text of the source: active = potency below about 15 µM; inconclusive = mostly about 16 µM to 33 µM; inactive = weaker than that. The list shows a part of the results.
target: Lysosomal acid glucosylceramidase (Homo sapiens) (UniProt P04062); experiment: Glucocerebrosidase; conditions: purified enzyme, resorufin glucoside fluorescence (screen aimed at inhibitors), 20 min;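 note: the screen sought inhibitors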
Outline: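 Wild-type enzyme at 0.2 nM final in 50mM citric acid/KH2PO4, 10mM sodium taurocholate, 0.01% tween-20, pH 5.9, with resorufin beta-D-glucopyranoside at 30 uM final. Compounds titrated, 20 min at RT, red fluorescence read; AC50 from titration.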
Potency is the fitted concentration of half-maximal effect.

Sequence of UniProt P04062 (P04062 whole entry, looked up): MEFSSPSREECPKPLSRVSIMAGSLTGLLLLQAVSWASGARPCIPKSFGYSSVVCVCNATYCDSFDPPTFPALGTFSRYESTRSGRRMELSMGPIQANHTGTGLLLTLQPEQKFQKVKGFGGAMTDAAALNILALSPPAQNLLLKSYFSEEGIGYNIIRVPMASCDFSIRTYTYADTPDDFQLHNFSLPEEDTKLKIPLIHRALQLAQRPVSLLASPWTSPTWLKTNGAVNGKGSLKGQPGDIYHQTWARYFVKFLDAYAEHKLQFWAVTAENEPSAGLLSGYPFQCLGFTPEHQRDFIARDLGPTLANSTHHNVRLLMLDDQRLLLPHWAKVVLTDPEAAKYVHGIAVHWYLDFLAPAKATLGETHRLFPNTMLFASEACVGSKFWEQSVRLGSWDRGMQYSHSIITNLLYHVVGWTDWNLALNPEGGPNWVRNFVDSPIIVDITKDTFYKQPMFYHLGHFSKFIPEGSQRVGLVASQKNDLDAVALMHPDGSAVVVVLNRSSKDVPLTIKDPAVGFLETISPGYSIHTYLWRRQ

Potency, active:
CCOC(=O)c1c(C)[nH]c(C(=O)Nc2ccc3c(c2)OCO3)c1C 12.9 µM

Potency, inactive:
CCn1c(NC(=O)c2cccs2)nc2ccccc21 > 76.9 µM
CC(C)c1ccc(-c2nn[nH]n2)cc1 > 76.9 µM
COc1ccc(-c2ccc(NCCC3=CCCCC3)nn2)cc1OC > 76.9 µM
CCCc1cc(=O)oc2cc(C)cc(OCc3nn[nH]n3)c12 > 76.9 µM
O=C(c1cnn2c(C(F)F)cc(C3CC3)nc12)N1CCOCC1 > 76.9 µM
N#CCSc1ncnc2sc3c(c12)CCC3 > 76.9 µM
CCn1c(C)csc1=NC(=O)c1ccccc1O
COCCn1c(SCC#N)nnc1-c1ccccc1 > 76.9 µM
COC(=O)C1C(=O)C2=C(CC1C)NC(C)=C(C(=O)OCCOc1ccccc1)C2c1ccc(C)o1 (configuration not stated) > 76.9 µM
CCOc1ccc(C2c3c(oc4ccccc4c3=O)C(=O)N2CCCN2CCOCC2)cc1 (configuration not stated) > 76.9 µM
CC1(C)CC(=O)C=C(N2CCNCC2)C1 > 76.9 µM
CCOC(=O)CCCCNCc1ccccc1 > 76.9 µM
CCC(C(=O)N1CCN(S(C)(=O)=O)CC1)c1ccccc1 (configuration not stated) > 76.9 µM
CC(=O)NCCSCCNC(C)=O > 76.9 µM
O=C(COc1ccc(Cl)cc1Cl)NCc1ccco1 > 76.9 µM
COC(=O)C1=CNC=C(C(=O)OC)C1c1ccc(Cl)cc1 > 76.9 µM
Nn1c(SCC(=O)NC2CCCCC2)nnc1-c1ccccc1 > 76.9 µM
CCOC(=O)c1cc2sc(C)cc2n1CC(=O)NCc1ccc(F)cc1 > 76.9 µM
Cc1noc(C)c1COc1ccc(C(=O)OCC(=O)c2ccc3c(c2)OCCO3)cc1 > 76.9 µM
COc1ccccc1C1C=C(c2ccc(Cl)cc2)Nc2nc(N3C(=O)CCC3=O)nn21 (configuration not stated) > 76.9 µM
COC(=O)Cn1cnc2sc(C)c(S(=O)(=O)N3CCC(C)CC3)c2c1=O > 76.9 µM
Cc1ccc(-n2ncc3c(NCC4CCCO4)ncnc32)c(C)c1 (configuration not stated) > 76.9 µM
CCCS(=O)(=O)N1CCC(C(=O)NCCc2ccc(OC)c(OC)c2)CC1 > 76.9 µM
Cc1ccc(C)c(S(=O)(=O)c2c(N)n(/N=C/c3ccco3)c3nc4ccccc4nc23)c1 > 76.9 µM
O=C(OCC1COc2ccccc2O1)c1ccccc1F (configuration not stated) > 76.9 µM
O=C(OCC(=O)N1CCCC1)c1cncc(Br)c1 > 76.9 µM
COCC(=O)N1CCC(n2nnc3cc(F)ccc32)CC1 > 76.9 µM
CCn1c(C)cc2c(c1=O)C(c1ccccc1Br)C(C#N)=C(N)O2 (configuration not stated) > 76.9 µM
CCOC(=O)C1C(=O)NC(N2CCN(CC)CC2)=NC1c1ccccc1 (configuration not stated) > 76.9 µM
COc1ccc(CNC(=O)CN(CC2CCCO2)C(=O)CNS(=O)(=O)c2ccccc2)cc1 (configuration not stated) > 76.9 µM
O=C1C(=O)N(CCOCCO)C(c2ccccn2)/C1=C(\O)c1ccccc1 (configuration not stated) > 76.9 µM
Cc1cc(C(=O)CSc2nncs2)c(C)n1-c1c(C)n(C)n(-c2ccccc2)c1=O > 76.9 µM
O=C(Nc1cnc2ccccc2c1)N1CCOCC1 > 76.9 µM
COC(=O)c1ccc(NC(=O)CN2CCN(S(=O)(=O)c3cc(Cl)ccc3OC)CC2)cc1 > 76.9 µM
CCCCN(CC)CCCNC(=O)Cn1nc(Cc2ccncc2)c2ccccc2c1=O > 76.9 µM
Cc1cc(O)c(C(C)C)cc1NS(=O)(=O)c1ccccc1 > 76.9 µM
CCc1nnc(NC(=O)C2CCN(c3nc(C)cc(C)n3)CC2)s1
O=C(CSc1ncc(-c2ccc(F)cc2)[nH]1)NCc1ccco1 > 76.9 µM
COCCN(CCOC)c1cc(C)c(C#N)c2nc3ccccc3n12 > 76.9 µM
COc1ccc(C)cc1C(=O)CCC(=O)Nc1ccccc1N1CCOCC1 > 76.9 µM
CC(=O)Nc1cc2nn(-c3ccccc3)nc2cc1Cl > 76.9 µM
CC(C)CN(C(=O)COC(=O)Cc1n[nH]c(=O)c2ccccc12)C1CCS(=O)(=O)C1 (configuration not stated) > 76.9 µM
CCOC(=O)c1cc(NC(=O)c2cc(C)on2)cc(C(=O)OCC)c1 > 76.9 µM
O=C(COc1ccc2ccccc2c1Br)N1CCOCC1 > 76.9 µM
CCN1C(=O)/C(=C/N(C)C)c2ccccc21 > 76.9 µM
CSc1ncccc1C(=O)OCC(=O)c1cc2ccccc2o1 > 76.9 µM
COc1ccc(Cc2nnc3n2N=C(c2cc4ccccc4o2)CS3)cc1OC > 76.9 µM
CCOc1ccc(NC(=O)c2ccco2)cc1 > 76.9 µM
CCC(C)C(NC(=O)c1ccccc1NC(=O)c1ccc(OC)cc1)C(=O)NCc1ccco1 (configuration not stated) > 76.9 µM
CCCCn1c(CN2CCN(c3cccc(Cl)c3)CC2)nc2c1c(=O)n(C)c(=O)n2C > 76.9 µM
Cc1cccc(S(=O)(=O)Nc2nc3ccccc3nc2NCc2ccco2)c1 > 76.9 µM
CC1CCCN(C(=O)Cc2ccc(F)cc2)C1 (configuration not stated) > 76.9 µM
COc1ccc(F)cc1S(=O)(=O)n1cc(C)nc1-c1ccccc1 > 76.9 µM
Cc1nnc(SCC(=O)n2c3c(c4ccccc42)CCCC3)s1 > 76.9 µM
COc1ccc(C(=O)n2nc(C)cc2C)cc1OC > 76.9 µM
CS(=O)(=O)N(CCc1ccccc1)CC(=O)NCc1cccnc1 > 76.9 µM
CN(C)c1ccc(CN(C(=O)COc2ccc(Br)cc2)C2CCS(=O)(=O)C2)cc1 (configuration not stated) > 76.9 µM
Cc1ccnc(SCCn2c(N3CCCCC3)nc3c2c(=O)n(C)c(=O)n3C)n1 > 76.9 µM
CSc1nc(NCCOCCO)c2sc3nc(-c4ccco4)c4c(c3c2n1)CCC4 > 76.9 µM
O=C(N1CCN(c2ccccc2F)CC1)C12CC3CC(CC(C3)C1)C2 > 76.9 µM
Cn1c(=O)c(C(=O)Nc2cnccn2)c(O)c2ccccc21 > 76.9 µM
CC(=O)Nc1ccc(SCC(=O)OCC(=O)NC(=O)NCc2ccco2)cc1 > 76.9 µM
CC1(C)CC(=O)CC(=Nc2ccc(C(=O)O)cc2)C1 > 76.9 µM
CC1(C)Cc2nc(N3CCOCC3)c(C#N)cc2CO1 > 76.9 µM
CC(C(=O)N1c2ccccc2Sc2ccccc21)n1nnc(-c2cccs2)n1 (configuration not stated) > 76.9 µM
Cc1cc(OCc2nn[nH]n2)c2c(-c3ccccc3)cc(=O)oc2c1 > 76.9 µM
O=c1nc2s/c(=C\c3ccco3)c(=O)n2nc1Cc1ccc(F)cc1 > 76.9 µM
CCSc1nc2c(c(=O)[nH]c(=O)n2C)n1Cc1ccc(Cl)cc1 > 76.9 µM
COc1ccc(C2CCCN2C(=O)c2cccs2)cc1 (configuration not stated) > 76.9 µM
COc1cc(-c2nnc3sc(Cc4ccc(Cl)cc4)nn23)cc(OC)c1OC > 76.9 µM
O=C(c1cc2ccccc2oc1=O)N1CCN(Cc2ccc3c(c2)OCO3)CC1 > 76.9 µM
COc1cc(C2C(C(=O)c3ccc(C)o3)=C(O)C(=O)N2CCc2ccccc2)ccc1O (configuration not stated) > 76.9 µM
O=C(COC(=O)C1=COCCO1)Nc1ncc(C(F)(F)F)cc1Cl > 76.9 µM
CC1CN(C(=O)c2cccc(S(=O)(=O)N3CCOCC3)c2)CC(C)O1 (configuration not stated) > 76.9 µM
Cc1ccc(-n2nnnc2SCc2nnc(-c3ccccc3Br)o2)c(C)c1 > 76.9 µM
COc1nnc(-c2ccc(N3CCOCC3)c(NC(C)=O)c2)c2ccccc12 > 76.9 µM
COc1ccccc1-c1nnc2n1N=C(C)CS2 > 76.9 µM
COCCNC(=O)c1ccccc1-c1nc(-c2ccccc2OC)no1 > 76.9 µM
Cc1ccc(Cn2nnc3c(=O)n(CC(=O)N4CCCc5ccccc54)cnc32)cc1 > 76.9 µM
COC(=O)c1cccc(N2C(=O)c3ccccc3S2(=O)=O)c1 > 76.9 µM
C=CCNC(=O)NC(=S)c1ccccc1 > 76.9 µM
COC(=O)c1[nH]c2ccccc2c1NC(=O)CN1CCCCCC1 > 76.9 µM
Cc1cc(NC(=O)CSc2nc3ccsc3c(=O)n2NC(=O)c2ccccc2)no1 > 76.9 µM
Cc1cccc(C)c1NC(=O)N1CCN(C2CCCCC2)CC1 > 76.9 µM
CC1CCC(C(C)C)C(OC(=O)COC(=O)c2cccn2C)C1 (configuration not stated) > 76.9 µM
CCOC(=O)N1CCN(CC(=O)Nc2ccc(OC)cc2)CC1 > 76.9 µM
O=C(NO)C1CC2C=CC1C2 (configuration not stated) > 76.9 µM
Fc1cnc(N2CCN(c3ccccc3)CC2)nc1N1CCN(c2ccccc2)CC1 > 76.9 µM
Cc1csc2nc(CSc3nncn3-c3ccccc3)c(Br)n12 > 76.9 µM
CN1C(=O)NC(c2cccc(O)c2)C(C(=O)c2cccs2)C1(O)C(F)(F)F (configuration not stated) > 76.9 µM
Cc1ccc(C(=O)C2CCN(CC(=O)Nc3ccc4c(c3)OCCO4)CC2)cc1 > 76.9 µM

Reference: PubChem BioAssay AID360 (National Center for Advancing Translational Sciences (NCATS), 2006)
